This passage reports binding signal results from article PMC6212790.

This is one part of the list. At the low end of the ranking the order means little.

In the experiment the target is T1, GST-Rok (full length) (UniProt O34857).
T1 sequence: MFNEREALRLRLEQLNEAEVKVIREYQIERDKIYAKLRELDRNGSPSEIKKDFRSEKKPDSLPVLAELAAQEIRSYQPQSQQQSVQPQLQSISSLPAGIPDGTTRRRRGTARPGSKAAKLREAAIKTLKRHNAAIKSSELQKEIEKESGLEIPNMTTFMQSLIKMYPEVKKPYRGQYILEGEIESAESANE
The experiment is described as follows: protein binding microarray.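 Note: rank score from −0.5 (least bound) to 0.5 (best bound).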 As to conditions: Rok is a gene silencer of Bacillus subtilis; high values mean tight binding; most listed sequences are background and not binding sites; double strand, one strand shown.
In turn, CCAGGAAA registered a binding signal of -0.0397 E-score. In the case of CTCGAAAC it was 0.0616 E-score; in that of GTGATGAA, -0.0945 E-score. In the case of CCAGATGG it was -0.226 E-score; in that of CGACATCA, -0.0327 E-score; in that of CCATTAGC, 0.0149 E-score. Next, CGGTTGCC: -0.204 E-score; AAATAACT: 0.301 E-score.

Regarding AGGTCATA, the binding signal was -0.0849 E-score. Turning to ACGTCCGC, the binding signal is -0.108 E-score. In the case of CAGTAATC it was 0.0358 E-score; in that of CAGTCGTA, 0.0302 E-score. In the case of ATTCCCAG it was 0.0539 E-score; in that of AGGTAGTC, 0.0956 E-score; in that of GACTATTA, 0.157 E-score. TCCGAGCA had a binding signal of -0.0443 E-score. Next, GGGAAGTA: 0.17 E-score; AACGGGAC: -0.135 E-score; AGTTAGAA: 0.216 E-score.

CACCGTGC had a binding signal of -0.18 E-score. In the case of CTTTTAGA it was -0.223 E-score; in that of CAATCGAG, 0.0306 E-score. Next, GCTTAGTA: 0.173 E-score; GGCTCAGA: -0.171 E-score; GGACTGCC: -0.308 E-score. Next, ATTTCCGG: 0.00643 E-score; CATGTCGC: 0.00122 E-score; CCGAAAAG: 0.111 E-score. In turn, ACAGACTC gave a binding signal of -0.119 E-score. In the case of TGGAGCCA it was -0.151 E-score; in that of GGGTATCA, -0.113 E-score.

ACGTGACG came in with a binding signal of -0.186 E-score.

As to CCGTAAGG, the binding signal was -0.352 E-score. Sequence CGACATCG showed a binding signal of 0.0122 E-score. Next, CGCTAGAA: 0.269 E-score; TATGTTGA: 0.201 E-score; CAGGCCGG: -0.159 E-score. Next, ATGGGATG: -0.052 E-score. For AAATTGCA, the binding signal turned out to be 0.0879 E-score. In the case of ATCTCAGG it was 0.0391 E-score; in that of ATTCAAAG, -0.0764 E-score. Sequence GACAATAA returned a binding signal of 0.139 E-score. On to CGCGGCCG, for which the binding signal is -0.3 E-score. In the case of GCACGCGA it was -0.188 E-score. In the case of AGAAATGC it was -0.0536 E-score; in that of CCTTATTA, 0.0164 E-score. GCCGCGTA came in with a binding signal of 0.00524 E-score.

As to GCGGGCCA, the binding signal was -0.363 E-score. Next, AGACAGGG: -0.179 E-score. CCATGTGC yielded a binding signal of -0.0638 E-score. In the case of TGTCATAA, the binding signal is 0.146 E-score. In the case of GATGCTCC it was -0.191 E-score; in that of CGCCCCAA, -0.264 E-score; in that of CCAAAGAC, -0.185 E-score. In the case of AACGAACT it was 0.163 E-score; in that of ACCGTTCT, 0.0843 E-score; in that of AAAAATCA, 0.101 E-score. Next, AGCACCAC: -0.177 E-score; ATGATCTG: 0.0326 E-score; GTCATCGA: 0.0855 E-score. For GCTGCTCC, the binding signal was -0.369 E-score.

Sequence GAATCCCA yielded a binding signal of -0.18 E-score. The sequence AAGGAGAT had a binding signal of -0.00602 E-score. Next, CTAATATA: 0.349 E-score; GAAAGTAC: 0.321 E-score; TACTCACA: 0.0135 E-score.

For the sequence ATGGGTAG, the binding signal amounted to 0.263 E-score. In the case of ATTATCCC it was 0.205 E-score; in that of AGAAACAA, 0.253 E-score; in that of AGTACATG, 0.131 E-score.

GCAATTGA came in with a binding signal of 0.146 E-score. In the case of ACAGTGCC it was 0.00808 E-score; in that of GTGAGCGA, -0.169 E-score; in that of ACGCGTGA, -0.0933 E-score. Next, AAAGACGC: -0.0887 E-score; ATTGTCTC: 0.0458 E-score. Next, CAAGAGGA: -0.231 E-score. The sequence ATAAATCG showed a binding signal of 0.238 E-score.

With ATATGAGA, the binding signal came out at 0.0881 E-score. On to ATCCGGCC, for which the binding signal is -0.173 E-score. Take AGTGGAAC: the binding signal was -0.038 E-score. Next, AGAGGTGG: -0.104 E-score; CAGGCGCG: -0.0887 E-score.

Turning to GTATGAGA, the binding signal turned out to be 0.0785 E-score. For TAGGTTGA, the binding signal was 0.0689 E-score. Next, CTGAGCAA: 0.0253 E-score. In the case of ACGTGATC it was 0.1 E-score; in that of CCAGGTAG, 0.0972 E-score; in that of GCTTCAAA, -0.299 E-score. In the case of TCCGTCGA it was -0.0492 E-score; in that of ACACGGAA, -0.0276 E-score. Consider AGCGAGGG, for which the binding signal was -0.224 E-score.

ACTTCGTC: the binding signal is -0.0747 E-score. In the case of AAGCGTTA it was -0.118 E-score. Next, AACGTATC: 0.0544 E-score.

Take AACTCCTT: the binding signal is -0.272 E-score. Next, AATCACAC: 0.102 E-score; ACGTGAGC: -0.173 E-score; GCGAATCA: -0.236 E-score.

Sequence CTACTTTA yielded a binding signal of 0.31 E-score.

Consider AGCCCTTC, for which the binding signal is -0.17 E-score.

On to CCGCGGTC, for which the binding signal is -0.302 E-score.

In turn, AGCTCTAT yielded a binding signal of 0.0862 E-score. In the case of AGCACCTA it was 0.0334 E-score; in that of CTGAAACA, -0.325 E-score; in that of GAGAGTAA, 0.0727 E-score. The sequence CTCAATCA yielded a binding signal of -0.176 E-score. Next, AGCTACGC: 0.0208 E-score; GGTGGAAC: -0.21 E-score; GTGTCTCA: -0.215 E-score.

GTCCGGAC: the binding signal is -0.0589 E-score. As to ACGCCCTC, the binding signal is -0.344 E-score. Take ACGGAAGT: the binding signal worked out at 0.157 E-score. In the case of ATTGAGTG it was 0.0352 E-score; in that of GTGGCTAA, -0.053 E-score. Next, AGTTCATG: 0.12 E-score; ATTATGCG: 0.0785 E-score. CGATGGTA yielded a binding signal of 0.276 E-score. In the case of AACTTTAT it was 0.173 E-score; in that of CACACAAC, -0.0368 E-score. CCCTTATC: the binding signal was -0.109 E-score.

Regarding ACTTGAAT, the binding signal turned out to be 0.14 E-score.

AATCCGGA: the binding signal was -0.113 E-score. In the case of ACCTTTAT it was 0.129 E-score.

With CAGTCTGA, the binding signal was -0.176 E-score.

The sequence AATCCGAA displayed a binding signal of 0.0235 E-score. Next, GACGCACC: -0.28 E-score; CCCTCTCA: -0.26 E-score; GCCTCGTA: -0.204 E-score. GTGTAGAA yielded a binding signal of 0.292 E-score. In the case of AACTACGC it was 0.201 E-score; in that of TGTAAAAA, 0.317 E-score.

Regarding GTTGTTTA, the binding signal is -0.0278 E-score. In the case of CGCGGGGC it was -0.316 E-score; in that of AAGCCCCC, -0.461 E-score.

For the sequence ACACGCGA, the binding signal is 0.0175 E-score.

On to CCGTTTCA, for which the binding signal is -0.174 E-score. Regarding AATTTCCA, the binding signal came out at 0.104 E-score.

With GCTTTTTA, the binding signal came out at 0.157 E-score. In the case of ACCCGCGT it was -0.099 E-score. In the case of GCCGCCAC it was -0.216 E-score; in that of CAGCTCCC, -0.366 E-score. In the case of CTAACATC, the binding signal was 0.18 E-score. Next, AAAATAAT: 0.246 E-score. Next, CCGTGAGG: -0.256 E-score; AACCCTAC: 0.0465 E-score. In the case of ACGCGTCG, the binding signal was 0.024 E-score.

In turn, AAGTGTGT returned a binding signal of 0.096 E-score. Next, TAGACAAA: 0.0516 E-score; AATGTCCA: 0.0401 E-score; ACACCCTG: -0.00397 E-score. Next, GTCTGCAC: -0.13 E-score; GGCCGGCC: -0.34 E-score; CTCTGCGC: -0.0551 E-score. In the case of TCGCACAA it was 0.0863 E-score; in that of CACTATCA, 0.219 E-score. The sequence ACTGGGCC yielded a binding signal of -0.286 E-score. For CATAATGC, the binding signal came out at 0.235 E-score. On to ATGTCGAC, for which the binding signal is 0.0407 E-score. The sequence AATGCACT had a binding signal of -0.0288 E-score. Next, AACGTTTA: 0.123 E-score. In the case of CTGGAAGC it was -0.219 E-score; in that of AACACCCG, -0.142 E-score; in that of AGTGTATC, 0.129 E-score.

In the case of CATACAAA, the binding signal stood at 0.288 E-score. GCGGCCAA gave a binding signal of -0.188 E-score. Next, ATAATTCA: 0.21 E-score; ACATTAAC: 0.213 E-score; CTTTAAAG: 0.0411 E-score. On to CCGGCATC, for which the binding signal was -0.236 E-score. Next, ACTCACAT: -0.00348 E-score. In the case of GGGGTAAC it was -0.248 E-score.
